In a collection of fitness landscapes (doi:10.1016/j.celrep.2020.107928):
The full ranking holds about 81,000 sequences; the median of “one-hybrid fitness for binding NBS DNA” is about -0.1, and the highest 2% start at about 0.36. Some of the results follow.

B1: Caulobacter ParB omega fusion; a variant is named by its letters at X, in order, B8GW30 (parent)
chain: MESVVVGEPGMSEGRRGLGRGLSALLGEVDAAPAQAPGEQLGGSREAPIEILQRNPDQPRRTFREEDLEDLSNSIREKGVLQPILVRPSPDTAGEYQIVAGERAWRAAQRAGLKTVPIMVRELDDLAVLEIGIIENVQRADLNVLEEALSYKVLMEKFERTQENIAQTIGKSXSHVANXMRLLXLPDEVQSYLVSGELTAXHARAIAAAADPVALAKQIIEGGLSVRETEALARKAPNLSAGKSKGGRPPRVKDTDTQALESDLSSVLGLDVSIDHRGSTGTLTITYATLEQLDDLCNRLTRGI

Variants of: B1
Test: one-hybrid fitness for binding NBS DNA (the Noc-binding site; scaled: cognate 1, non-cognate 0); higher = stronger binding
Details: with NBS DNA site
Method in brief: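 In E. coli USO, a HIS3 reporter with its site placed 19 bp from the promoter was used to select Caulobacter ParB variants randomised at four specificity codons. Growth lasted 48 hours at 37°C on histidine-free M9 containing 0.1 mM IPTG and 5 mM 3-AT. Fitness was taken as the log change in variant-to-wild-type read ratio from Illumina sequencing of pre- and post-selection plasmids, rescaled between the non-cognate and cognate sites.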

| Variant | one-hybrid fitness for binding NBS DNA |
| --- | --- |
| TYNT | ≤ 0.2 |
| RQRI | ≤ 0.2 |
| KLRD | ≤ 0.2 |
| PEQK | ≤ 0.2 |
| PGAF | ≤ 0.2 |
| TMYW | ≤ 0.2 |
| NALE | ≤ 0.2 |
| VVNN | ≤ 0.2 |
| EMIL | ≤ 0.2 |
| HPGC | ≤ 0.2 |
| VEGP | ≤ 0.2 |
| PEPE | ≤ 0.2 |
| AQTT | ≤ 0.2 |
| TWTF | ≤ 0.2 |
| EYKS | ≤ 0.2 |
| QPSD | ≤ 0.2 |
| EQSG | ≤ 0.2 |
| QFSV | ≤ 0.2 |
| NQHQ | ≤ 0.2 |
| WCRR | 0.223 |
| YHPY | ≤ 0.2 |
| RFTA | ≤ 0.2 |
| QMAK | ≤ 0.2 |
| TPFL | ≤ 0.2 |

| Variant | one-hybrid fitness for binding NBS DNA |
| --- | --- |
| EPMD | ≤ 0.2 |
| QNNR | 0.287 |
| GNME | ≤ 0.2 |
| AEQG | ≤ 0.2 |
| TFAT | ≤ 0.2 |
| QGEP | ≤ 0.2 |
| RSYM | ≤ 0.2 |
| AHNV | ≤ 0.2 |
| TVVP | ≤ 0.2 |
| YNQP | ≤ 0.2 |
| LDSA | ≤ 0.2 |
| ATNL | ≤ 0.2 |
| YVLS | ≤ 0.2 |
| VTEC | ≤ 0.2 |
| ANHE | ≤ 0.2 |
| EDRV | ≤ 0.2 |
| QLMH | ≤ 0.2 |
| PPDP | ≤ 0.2 |
| RNVL | ≤ 0.2 |
| PVEW | ≤ 0.2 |
| RLDI | ≤ 0.2 |
| RGEV | ≤ 0.2 |
| QYRC | 0.38 |
| FHLR | ≤ 0.2 |

| Variant | one-hybrid fitness for binding NBS DNA |
| --- | --- |
| PVRK | ≤ 0.2 |
| LSAM | ≤ 0.2 |
| RHKN | 0.205 |
| CKTA | ≤ 0.2 |
| TSCD | ≤ 0.2 |
| LPSR | ≤ 0.2 |
| PYRN | ≤ 0.2 |
| SGNP | ≤ 0.2 |
| RACE | ≤ 0.2 |
| MQNG | ≤ 0.2 |
| YTPL | ≤ 0.2 |
| WYPR | ≤ 0.2 |
| VATN | ≤ 0.2 |
| NMHD | ≤ 0.2 |
| ASSF | ≤ 0.2 |
| KRMA | 0.237 |
| QPKH | ≤ 0.2 |
| KTLV | ≤ 0.2 |
| TGGY | ≤ 0.2 |
| LVEG | ≤ 0.2 |
| CVYS | ≤ 0.2 |
| ERSN | ≤ 0.2 |
| CPMG | ≤ 0.2 |
| LGLK | ≤ 0.2 |

| Variant | one-hybrid fitness for binding NBS DNA |
| --- | --- |
| PQVS | ≤ 0.2 |
| QSSW | ≤ 0.2 |
| QAMH | 0.219 |
| AYGT | ≤ 0.2 |
| TMYG | ≤ 0.2 |
| VSTG | ≤ 0.2 |
| SMIV | ≤ 0.2 |
| CNHG | ≤ 0.2 |
| ARCD | ≤ 0.2 |
| APND | ≤ 0.2 |
| GRNY | ≤ 0.2 |
| LMKC | ≤ 0.2 |
| RYMQ | ≤ 0.2 |
| TIWL | ≤ 0.2 |
| ILCR | ≤ 0.2 |
| GVPW | ≤ 0.2 |
| WHIR | ≤ 0.2 |
| IGWR | ≤ 0.2 |
| MHYV | ≤ 0.2 |
| TKKH | ≤ 0.2 |
| STVR | ≤ 0.2 |
| YHHS | ≤ 0.2 |
| HMTS | ≤ 0.2 |
| REAW | ≤ 0.2 |

| Variant | one-hybrid fitness for binding NBS DNA |
| --- | --- |
| RMAW | ≤ 0.2 |
| LMIS | ≤ 0.2 |
| CVSC | ≤ 0.2 |
| QWRM | ≤ 0.2 |
| DHVT | ≤ 0.2 |
| EGTW | ≤ 0.2 |
| YIFD | ≤ 0.2 |
| IYST | ≤ 0.2 |
| YVPS | ≤ 0.2 |
| EVDL | ≤ 0.2 |
| STYC | ≤ 0.2 |
| NIKH | ≤ 0.2 |
| LMQL | ≤ 0.2 |
| PHRH | ≤ 0.2 |
| YKFR | ≤ 0.2 |
| TPLI | ≤ 0.2 |
| MRDI | ≤ 0.2 |
| PYHD | ≤ 0.2 |
| RIKE | ≤ 0.2 |
| NECS | ≤ 0.2 |
| STLS | ≤ 0.2 |
| WRSE | ≤ 0.2 |
| FLED | ≤ 0.2 |
| AICR | ≤ 0.2 |

| Variant | one-hybrid fitness for binding NBS DNA |
| --- | --- |
| QHMR | 0.512 |
| FYTC | ≤ 0.2 |
| AKEC | ≤ 0.2 |
| PWNC | ≤ 0.2 |
| NHPG | ≤ 0.2 |
| AANA | ≤ 0.2 |
| ALER | ≤ 0.2 |
| QTRQ | 0.581 |
| YQPF | ≤ 0.2 |
| CCEE | ≤ 0.2 |
| WANT | ≤ 0.2 |
| WHMC | ≤ 0.2 |
| SFDG | ≤ 0.2 |
| INMT | ≤ 0.2 |
| KADD | ≤ 0.2 |
| DSNS | ≤ 0.2 |
| KMLT | ≤ 0.2 |
| PKTC | ≤ 0.2 |
| AKIT | ≤ 0.2 |
| AEAW | ≤ 0.2 |
| PKVV | ≤ 0.2 |
| VKWS | ≤ 0.2 |
| KVRV | ≤ 0.2 |
| WFED | ≤ 0.2 |

| Variant | one-hybrid fitness for binding NBS DNA |
| --- | --- |
| LFHR | ≤ 0.2 |
| HQAS | ≤ 0.2 |
| QKIW | ≤ 0.2 |
| YSMG | ≤ 0.2 |
| KRYY | ≤ 0.2 |
| AGCG | ≤ 0.2 |
| QFKK | ≤ 0.2 |
| KLLT | ≤ 0.2 |
| SIMW | ≤ 0.2 |
| QEGR | ≤ 0.2 |
| DGPV | ≤ 0.2 |
| RENY | ≤ 0.2 |
| RSYT | 0.322 |
| EIPG | ≤ 0.2 |
| ANSP | ≤ 0.2 |
| HPDR | ≤ 0.2 |
| EAKD | ≤ 0.2 |
| PRMR | ≤ 0.2 |
| RHEA | ≤ 0.2 |
| SNHH | ≤ 0.2 |
| GIQC | ≤ 0.2 |
| LMSV | ≤ 0.2 |
| HWNT | ≤ 0.2 |
| PVYS | ≤ 0.2 |

| Variant | one-hybrid fitness for binding NBS DNA |
| --- | --- |
| LVAV | ≤ 0.2 |
| QMSH | ≤ 0.2 |
| VSQD | ≤ 0.2 |
| NHNP | ≤ 0.2 |
| EAKL | ≤ 0.2 |
| EEYS | ≤ 0.2 |
| GLAR | ≤ 0.2 |
| PIEM | ≤ 0.2 |
| TRDN | ≤ 0.2 |
| KKIL | ≤ 0.2 |
| KRPN | ≤ 0.2 |
| TVAG | ≤ 0.2 |
| IICG | ≤ 0.2 |
| SHYM | ≤ 0.2 |
| SKKH | ≤ 0.2 |
| HHRC | ≤ 0.2 |
| KDMC | ≤ 0.2 |
| KEPS | ≤ 0.2 |
| TSAG | ≤ 0.2 |
| HMNR | ≤ 0.2 |
| YCYV | ≤ 0.2 |
| RQWY | ≤ 0.2 |
| TCER | ≤ 0.2 |
| RTQP | ≤ 0.2 |

| Variant | one-hybrid fitness for binding NBS DNA |
| --- | --- |
| CGQG | ≤ 0.2 |
| LPPI | ≤ 0.2 |
| LEAL | ≤ 0.2 |
| CDAG | ≤ 0.2 |
| NHTI | ≤ 0.2 |
| WRPT | ≤ 0.2 |
| YKTL | ≤ 0.2 |
| TSFN | ≤ 0.2 |
| VFHS | ≤ 0.2 |
| GWVS | ≤ 0.2 |
| RMSY | ≤ 0.2 |
| KQVS | ≤ 0.2 |
| KFWG | ≤ 0.2 |
| ICRG | ≤ 0.2 |
| CTGL | ≤ 0.2 |
| QVMN | ≤ 0.2 |
| RYRA | 0.367 |
| ATTK | ≤ 0.2 |
| VEWC | ≤ 0.2 |
| WIMN | ≤ 0.2 |
| ATAT | ≤ 0.2 |
| VRTS | ≤ 0.2 |
| QEAR | ≤ 0.2 |
| RVHN | ≤ 0.2 |

| Variant | one-hybrid fitness for binding NBS DNA |
| --- | --- |
| WHSN | ≤ 0.2 |
| GGMM | ≤ 0.2 |
| NHTM | ≤ 0.2 |
| PLIA | ≤ 0.2 |
| PNFC | ≤ 0.2 |
| SPNE | ≤ 0.2 |
| TFPG | ≤ 0.2 |
| GSHI | ≤ 0.2 |
| SDCS | ≤ 0.2 |
| TALP | ≤ 0.2 |
| QTVP | ≤ 0.2 |
| PAPT | ≤ 0.2 |
| GAKS | ≤ 0.2 |
| QLYR | 0.425 |
| SMNT | ≤ 0.2 |
| KTQC | ≤ 0.2 |
| LYSH | ≤ 0.2 |
| YNGV | ≤ 0.2 |
| CGAA | ≤ 0.2 |
| APGN | ≤ 0.2 |
| HSSQ | ≤ 0.2 |
| QSFG | ≤ 0.2 |
| RVDF | ≤ 0.2 |
| FAHG | ≤ 0.2 |

| Variant | one-hybrid fitness for binding NBS DNA |
| --- | --- |
| RSDA | ≤ 0.2 |
| DHIC | ≤ 0.2 |
| GWPS | ≤ 0.2 |
| RELE | ≤ 0.2 |
| DTFA | ≤ 0.2 |
| FWAG | ≤ 0.2 |
| LCDI | ≤ 0.2 |
| GSRF | ≤ 0.2 |
| RAEN | ≤ 0.2 |
| QSNP | ≤ 0.2 |
| LQDG | ≤ 0.2 |
| CAPG | ≤ 0.2 |
| GLAV | ≤ 0.2 |
| CRQR | ≤ 0.2 |
| YQAL | ≤ 0.2 |
| PMRY | ≤ 0.2 |
| HMCA | ≤ 0.2 |
| SRCN | ≤ 0.2 |
| PTNS | ≤ 0.2 |
| MTLL | ≤ 0.2 |
| DICV | ≤ 0.2 |
| NCIC | ≤ 0.2 |
| TCPF | ≤ 0.2 |
| TTVV | ≤ 0.2 |

| Variant | one-hybrid fitness for binding NBS DNA |
| --- | --- |
| SLLW | ≤ 0.2 |
| ILAV | ≤ 0.2 |
| VFVC | ≤ 0.2 |
| RASD | ≤ 0.2 |
| STNT | ≤ 0.2 |
| HIPD | ≤ 0.2 |
| LIQR | ≤ 0.2 |
| NILC | ≤ 0.2 |
| LDHW | ≤ 0.2 |
| AMRC | ≤ 0.2 |
| RNKH | 0.237 |
| CERS | ≤ 0.2 |
| EMKC | ≤ 0.2 |
| RCFD | ≤ 0.2 |
| LENE | ≤ 0.2 |
| RDRF | ≤ 0.2 |
| DGAR | ≤ 0.2 |
| RCAS | 0.476 |
| AVRR | ≤ 0.2 |
| KGER | ≤ 0.2 |
| SRLD | ≤ 0.2 |
| NWHS | ≤ 0.2 |
| WTGE | ≤ 0.2 |
| KDPP | ≤ 0.2 |

| Variant | one-hybrid fitness for binding NBS DNA |
| --- | --- |
| DIEW | ≤ 0.2 |
| GHNR | ≤ 0.2 |
| PIVW | ≤ 0.2 |
| GHEF | ≤ 0.2 |
| QIMG | ≤ 0.2 |
| PCTV | ≤ 0.2 |
| TYRD | ≤ 0.2 |
| SLYC | ≤ 0.2 |
| RKYM | ≤ 0.2 |
| LGIT | ≤ 0.2 |
| IYPV | 0.41 |
| FCYS | ≤ 0.2 |
| TSEY | ≤ 0.2 |
| NNLR | ≤ 0.2 |
| AFDV | ≤ 0.2 |
| YHLN | ≤ 0.2 |
| DMQP | ≤ 0.2 |
| FSWL | ≤ 0.2 |
